Source: the supplement of paper PMC12217912
The other results are listed elsewhere or left out. The full chains were built here from the parent and the listed change. Inactive controls read about 0.05.

B1: TEV protease; numbered along this chain (parent)
chain: MGESLFKGPRDYNPISSSICHLTNESDGHTTSLYGIGFGPFIITNKHLFRRNNGTLVVQSLHGVFKVKDTTTLQQHLVDGRDMIIIRMPKDFPPFPQKLKFREPQREERICLVTTNFQTKSMSSMVSDTSCTFPSGDGIFWKHWIQTKDGQCGSPLVSTRDGFIVGIHSASNFTNTNNYFTSVPKNFMELLTNQEAQQWVSGWRLNADSVLWGGHKVFMVKPEEPFQPVKEATQL

Variants of: B1
Test: raw area under fraction-flipped curve 0-4 h after induction (AUC4h, not background-subtracted), DNA-recorder readout of cleavage of the substrate (dimensionless); higher = more cleavage of the substrate by the protease variant
Conditions: temperature: 34 °C; time window: 0-4 h after rhamnose induction
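Note: Bxb1 expression induced with 0.2% (w/v) L-rhamnose at OD600 near 0.5, cultures sampled hourly, flipped fraction per protease–substrate barcode pair counted by paired-end Illumina sequencing.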

Variant | area with substrate ENLYFQA | area with substrate ENLYFQD | area with substrate ENLYFQG | area with substrate ENLYFQI | area with substrate ENLYFQK | area with substrate ENLYFQL | area with substrate ENLYFQM | area with substrate ENLYFQP | area with substrate ENLYFQR | area with substrate ENLYFQS | area with substrate ENLYFQT | area with substrate ENLYFQW | area with substrate ENLYFQY | area with substrate ENLYFQC | area with substrate ENLYFQF | area with substrate ENLYFQH | area with substrate ENLYFQV | area with substrate ENLYFQN | area with substrate ENLYFQE | area with substrate ENLYFQQ
I19E | 0.0522 | 0.0434 | 0.0448 | 0.0481 | 0.0454 | 0.0428 | 0.0494 | 0.0481 | 0.04 | 0.0548 | 0.0425 | 0.0514 | 0.0558 |  |  |  |  |  |  | 
I19F | 0.0625 | 0.0865 | 0.0733 | 0.0629 | 0.0619 | 0.0564 |  | 0.0579 | 0.0566 | 0.0696 | 0.0572 | 0.0609 | 0.0659 | 0.0748 | 0.0662 | 0.0889 | 0.0551 |  |  | 
S154P |  |  | 0.0584 | 0.0715 |  |  |  |  |  | 0.0607 |  | 0.051 |  | 0.0744 |  |  |  | 0.0539 |  | 
Q151I | 0.0878 | 0.0687 | 0.0964 |  | 0.071 | 0.0522 |  | 0.0605 | 0.0574 | 0.0836 | 0.0541 | 0.0619 | 0.0753 | 0.0953 |  | 0.0696 |  |  | 0.0592 | 
R102D |  |  | 0.0553 |  | 0.0379 | 0.0568 | 0.0503 |  |  | 0.0532 | 0.0175 | 0.0487 |  | 0.0501 |  |  |  |  |  | 
R102W |  | 0.0521 |  | 0.037 | 0.0467 | 0.0447 | 0.0534 | 0.0584 | 0.048 | 0.0507 | 0.0364 | 0.045 |  | 0.0772 | 0.0497 | 0.0528 | 0.0568 | 0.0456 |  | 
N13D | 0.0814 | 0.076 | 0.114 | 0.046 | 0.0679 | 0.0602 | 0.0787 | 0.0553 | 0.0648 | 0.0986 | 0.0713 | 0.0419 | 0.0744 | 0.101 | 0.107 | 0.0748 | 0.0444 | 0.103 |  | 
G213D | 0.0667 |  |  | 0.0387 | 0.0626 | 0.065 | 0.036 | 0.0545 | 0.0637 | 0.0732 | 0.0636 |  | 0.0851 | 0.0754 |  | 0.0815 |  | 0.0536 |  | 
Y179Q | 0.0557 | 0.0556 | 0.0628 |  | 0.0736 | 0.0535 | 0.0492 |  | 0.0658 | 0.058 | 0.063 | 0.0473 |  | 0.0654 | 0.0608 | 0.0697 |  | 0.068 |  | 
Y179T |  |  | 0.0925 |  | 0.0664 |  | 0.0595 | 0.0938 |  | 0.054 | 0.0604 |  | 0.0623 | 0.0373 | 0.0517 | 0.0523 |  |  |  | 
G80R | 0.0772 | 0.0689 |  | 0.0352 | 0.0295 |  | 0.117 |  | 0.0605 | 0.098 | 0.0615 | 0.0629 |  | 0.0652 |  |  | 0.0463 | 0.0733 |  | 
D161T |  |  | 0.0932 | 0.0586 | 0.0633 | 0.0483 | 0.0711 |  | 0.0629 | 0.0917 | 0.0355 | 0.0663 | 0.076 | 0.0943 |  | 0.0675 | 0.0674 | 0.0658 |  | 0.0656
Q59Y | 0.124 | 0.0739 | 0.0652 |  | 0.0606 | 0.0518 |  |  |  | 0.105 | 0.0605 | 0.0534 |  | 0.0911 | 0.0609 |  |  |  | 0.0776 | 
G63D |  |  | 0.0912 | 0.0527 | 0.0507 |  |  | 0.046 | 0.0517 | 0.0891 | 0.0616 | 0.0748 | 0.0809 | 0.105 | 0.0659 | 0.0672 | 0.07 | 0.0656 | 0.0757 | 
V183F | 0.0814 |  | 0.0973 | 0.0673 | 0.0609 | 0.0811 | 0.0966 |  | 0.0608 | 0.0955 | 0.061 | 0.062 | 0.112 | 0.104 |  | 0.0685 | 0.048 | 0.0797 |  | 
K66V | 0.111 |  | 0.0937 | 0.0607 | 0.0634 | 0.0571 | 0.0822 | 0.0538 | 0.0626 | 0.115 | 0.0556 | 0.0686 | 0.08 | 0.138 |  |  |  |  |  | 
P222Y | 0.0854 | 0.0601 |  | 0.097 | 0.0622 | 0.0625 | 0.0735 | 0.0502 | 0.0596 | 0.093 |  | 0.0218 | 0.0638 | 0.121 |  | 0.0886 | 0.0597 | 0.0734 |  | 
C20D | 0.0423 | 0.0463 | 0.0501 | 0.0311 | 0.038 | 0.0484 | 0.0365 | 0.0364 |  | 0.0418 | 0.0363 | 0.0413 |  |  |  | 0.0662 | 0.0367 | 0.0397 |  | 
C20S | 0.0838 |  | 0.0888 |  | 0.058 | 0.0571 | 0.063 | 0.0534 | 0.0536 | 0.0814 | 0.0515 | 0.0582 | 0.0493 | 0.0655 |  |  | 0.0488 | 0.064 |  | 
T181Y |  | 0.0349 |  | 0.0525 | 0.0529 | 0.0434 | 0.0621 |  | 0.0486 | 0.0565 |  | 0.069 | 0.063 | 0.0589 | 0.0536 | 0.0792 |  | 0.0463 |  | 0.0457
Y34G | 0.115 | 0.0651 |  |  | 0.0665 |  | 0.0725 |  |  | 0.0933 | 0.0544 | 0.0562 | 0.0668 |  |  |  | 0.0622 | 0.0583 |  | 0.072
N52H | 0.0538 |  |  | 0.0619 | 0.0857 | 0.0504 | 0.0467 |  | 0.0541 | 0.071 | 0.0563 | 0.0443 | 0.0564 | 0.0719 | 0.0392 |  | 0.0797 | 0.0613 |  | 
A207V |  | 0.0631 | 0.12 | 0.0765 | 0.0737 | 0.0682 | 0.102 | 0.0571 | 0.056 | 0.105 | 0.0705 | 0.0556 |  | 0.117 |  |  |  | 0.0699 |  | 
H76I | 0.0809 |  | 0.0805 |  | 0.0721 | 0.0591 | 0.0698 |  |  | 0.0837 |  | 0.0537 |  | 0.0824 |  |  |  | 0.0618 |  | 
S127A | 0.129 | 0.0687 | 0.0927 | 0.0602 | 0.0698 | 0.0564 | 0.0881 | 0.0607 | 0.0737 | 0.116 | 0.0699 | 0.0645 | 0.077 | 0.132 |  | 0.0789 | 0.0613 | 0.101 | 0.0526 | 
L190W | 0.0734 |  | 0.0753 | 0.0559 |  |  | 0.0729 | 0.0674 | 0.066 | 0.0823 | 0.0781 | 0.0839 |  | 0.0757 |  | 0.0657 |  | 0.0532 |  | 0.0826
T55Y |  |  |  |  |  | 0.0545 | 0.0811 | 0.0559 | 0.0696 | 0.0846 | 0.0471 | 0.067 |  | 0.107 |  | 0.079 | 0.0541 |  | 0.0573 | 
